Source: patent US9234186B2, “Star-worm luciferase” (OLYMPUS CORPORATION, priority 2011, dated 2016)

Test system: HeLa cell
Test: Luminous intensity expressed in HeLa cell, star-worm mutant vs wild-type luciferase (Example 4)
Details: 2 mM D-luciferin, 37° C., 90 minutes, normalised to sea pansy luciferase internal control, codon-optimized gene with Kozak sequence

B1: star-worm mutant luciferase: Star-worm luciferase in which cysteine at position 344 of SEQ ID NO: 1 is substituted by serine (protein, listed as Diplocladon sp.)
chain: MPNEIVLHGAKPRDPLDLGTAGSQLFRSLTQFSYLREALVDAHTEQVVSYADILENSCRLAICFEKYGLRQNSVIAVCSENSAIFFYPVIAALYMGIITATVNDNYTERELFDTLNISKPELVFCSKKAIKNLTQLKNHIDFIKKLVVLDSDEDIGEVESLANFMKRYSESVIDVRNFKPRDFDAKEQVALIMSSSGTTGLPKGVVLTHRNLSVRFVHCKDPLFGTRTVPSTSILSIVPFHHAFGMFTTLSYFIVGLRVILLKRFEEEFFLSTIEKYRIPTIVLAPPVMVFLAKSPLVDQYDVSSIREVATGGAPVGIEVAEAVAKRLKINGILQGYGLTETCSAVLITPHDHVKTGSTGKVAPYVQAKVVDLSTGKSLGPNKRGELCFKSEIIMKGYFNNIKATEEAIDKEGWLHSGDVGYYDEDGHFYVVDRLKELIKYKGYQVAPAELEWLLLQHPAIKDAGVTGVPDEAAGELPGACIVLEEGHSLTEQEVIEYVAERVSPTKRIRGGVVFVDDIPKGATGKLVRSELRRMLSQKKSKL
luminous intensity relative to that induced by the star-worm wild-type luciferase: 4.9 times
